B1: PhoQ; a variant is named by its letters at X, in order, P23837 (parent)
chain: MKKLLRLFFPLSLRVRFLLATAAVVLVLSLAYGMVALIGYSVSFDKTTFRLLRGESNLFYTLAKWENNKLHVELPENIDKQSPTMTLIYDENGQLLWAQRDVPWLMKMIQPDWLKSNGFHEIEADVNDTSLLLSGDHSIQQQLQEVREDDDDAEMTHSVAVNVYPATSRMPKLTIVVVDTIPVELKSSYMVWSWFIYVLSANLLLVIPLLWVAAWWSLRPIEALAKEVRELEEHNRELLNPATTRELTSLVRNLNRLLKSERERYDKYRTTLTDLTHSLKTPLXXLQXXLRSLRSEKMSVSDAEPVMLEQISRISQQIGYYLHRASMRGGTLLSRELHPVAPLLDNLTSALNKVYQRKGVNISLDISPEISFVGEQNDFVEVMGNVLDNACKYCLEFVEISARQTDEHLYIVVEDDGPGIPLSKREVIFDRGQRVDTLRPGQGVGLAVAREITEQYEGKIVAGESMLGGARMEVIFGRQHSAPKDE

Some of the results follow.

This assay covers variants of B1. Put plainly: enrichment ratio after two sorts for PhoP signalling (ratio (wild type AVST 3.29)); higher = more functional. The following applies: with PhoP (E. coli).
Regarding IDGQ, the enrichment ratio is not above 0.25.
For the variant KPIY, the enrichment ratio was not above 0.25.
Turning to QESI, the enrichment ratio was determined as 7.8.
To WSIM belongs not above 0.25; to QVRK, not above 0.25.
Under QDTQ stands not above 0.25; under AKHE, not above 0.25; under GQCR, not above 0.25.
Take TTES: the enrichment ratio came to 3.51.
Regarding KYNI, the enrichment ratio is not above 0.25.
With CGCT, the enrichment ratio was not above 0.25.
To ENNC belongs not above 0.25.
For the variant KTLV, the enrichment ratio is not above 0.25.
To AHDL belongs not above 0.25; to QPSD, not above 0.25; to LRQI, not above 0.25.
To FSNN belongs not above 0.25.
To AHDR belongs not above 0.25.
Take QIIT: the enrichment ratio was not above 0.25.
Regarding EDLM, the enrichment ratio is not above 0.25.
Under KNVM stands not above 0.25; under MLHY, not above 0.25; under VCLP, not above 0.25.
To DCAF belongs not above 0.25; to LKRL, not above 0.25; to WWGA, not above 0.25.
For NWPV, the enrichment ratio is not above 0.25.
Under MFPY stands not above 0.25; under MRIY, not above 0.25; under WYWP, not above 0.25.
Turning to THYN, the enrichment ratio was not above 0.25.
Under QIHQ stands not above 0.25.
For the variant VVNG, the enrichment ratio is not above 0.25.
As to IRGT, the enrichment ratio was not above 0.25.
Turning to VLMV, the enrichment ratio is not above 0.25.
Under KSYL stands not above 0.25; under PMRF, not above 0.25; under FGCN, not above 0.25.
Under WAPS stands not above 0.25.
Under NPNS stands not above 0.25; under WKGF, not above 0.25; under QRDV, not above 0.25.
Consider PTCT, for which the enrichment ratio is not above 0.25.
Under QYEL stands not above 0.25.
Under YCFF stands not above 0.25; under RWDC, not above 0.25.
Under QMAK stands not above 0.25.
Take HLSA: the enrichment ratio is not above 0.25.
To FCAV belongs not above 0.25.
Under MQHF stands not above 0.25; under HQPH, not above 0.25; under SARL, not above 0.25.
Under KHVM stands not above 0.25; under KLKG, not above 0.25.
On to AMGH, for which the enrichment ratio was determined as 51.
To YHMD belongs not above 0.25; to VCGG, not above 0.25; to WQFI, not above 0.25.
As for KECY, the enrichment ratio was not above 0.25.
To THSL belongs 10.4.
Regarding DFQA, the enrichment ratio is not above 0.25.
As for YIIM, the enrichment ratio was not above 0.25.
Turning to DCFY, the enrichment ratio is not above 0.25.
Under FDMQ stands not above 0.25; under FWKF, not above 0.25.
To GPNC belongs not above 0.25.
Under WEFG stands not above 0.25; under PDPC, not above 0.25; under KDTP, not above 0.25.
Regarding WSFQ, the enrichment ratio was not above 0.25.
As to HDKK, the enrichment ratio is not above 0.25.
Under NYDK stands not above 0.25.
With TMGM, the enrichment ratio stood at 3.21.
In the case of GGES, the enrichment ratio was not above 0.25.
For ATRW, the enrichment ratio was not above 0.25.
Take GMVE: the enrichment ratio was not above 0.25.
Under LEAG stands not above 0.25; under AMTC, 20.7.
Regarding QQTF, the enrichment ratio is not above 0.25.
To KDKA belongs not above 0.25; to SPMD, not above 0.25.
Take IKYS: the enrichment ratio is not above 0.25.
To KSVA belongs not above 0.25.
Take SQMA: the enrichment ratio was determined as 8.75.
Under HENF stands not above 0.25; under DMYY, not above 0.25; under HDVC, not above 0.25.
Under LIDA stands not above 0.25.
Regarding NAMP, the enrichment ratio was not above 0.25.
Regarding NRGA, the enrichment ratio is not above 0.25.
To NLYT belongs not above 0.25; to QECY, not above 0.25.
YGLN: the enrichment ratio is 5.21.
To SNMA belongs 7.05; to EHMY, not above 0.25.
To YTWW belongs not above 0.25; to DISG, not above 0.25.
With HFKM, the enrichment ratio was not above 0.25.
To TRGV belongs not above 0.25; to TQGW, not above 0.25; to YEIV, not above 0.25.
Turning to VCYW, the enrichment ratio was not above 0.25.
To EAQP belongs not above 0.25; to KVFE, not above 0.25; to TRLY, 4.81.
Under FQIP stands not above 0.25; under WGSG, not above 0.25; under WRKA, not above 0.25.
On to WWQP, for which the enrichment ratio is not above 0.25.
Under LEWG stands not above 0.25.
To TPYE belongs not above 0.25; to DYSL, not above 0.25.
To SWDA belongs not above 0.25; to ESCI, not above 0.25.
As to KMQF, the enrichment ratio was not above 0.25.
Under LTAG stands not above 0.25; under IYCV, not above 0.25.
Under YKYH stands not above 0.25; under PQDV, not above 0.25.
Under FIFW stands not above 0.25; under IFQV, not above 0.25; under RKVS, not above 0.25.
Consider FEMW, for which the enrichment ratio was not above 0.25.
To IENK belongs not above 0.25.
Under TYES stands not above 0.25.
To KVIC belongs not above 0.25; to TFSI, 7.21; to RHLQ, not above 0.25.
Regarding VGVG, the enrichment ratio is not above 0.25.
To NIMF belongs not above 0.25.
Under EAMF stands not above 0.25.
Under VCAP stands not above 0.25.
Regarding WLPL, the enrichment ratio was not above 0.25.
Turning to DNKA, the enrichment ratio was not above 0.25.
To NLPD belongs not above 0.25; to ACPK, not above 0.25.
Under NNMD stands not above 0.25; under RYGR, not above 0.25.
Under MQCH stands 4.28; under FFMF, not above 0.25.
Consider EIIS, for which the enrichment ratio was not above 0.25.
Under YRDV stands not above 0.25; under PRWQ, not above 0.25.
As to RNQS, the enrichment ratio is not above 0.25.
To HWLF belongs not above 0.25.
To LWLV belongs not above 0.25; to QFKY, not above 0.25; to EHTI, not above 0.25.
To RLSF belongs not above 0.25; to NQVT, not above 0.25; to QDIG, not above 0.25.
Regarding WYCQ, the enrichment ratio is not above 0.25.
To HFSH belongs not above 0.25.

The values above are taken from a collection of fitness landscapes (doi:10.1126/science.1257360).
